This note sets out measurements from US20250066372A1, “HETEROCYCLIC COMPOUNDS, COMPOSITIONS THEREOF, AND METHODS OF TREATMENT THEREWITH” (BeiGene, Ltd., priority 2022, published 2025).

The target of this test is CDK6/Cyclin D3 (Homo sapiens (Human), UniProt Q00534). To be noted: read-out: CDK6/Cyclin D3 IC50; TR-FRET, 1 mM ATP, 0.15 μM Rb (Ser780)-biotin substrate. (In general: Time-resolved FRET reads energy transfer from a long-lived donor to a nearby acceptor.)
UniProt Q00534, sequence (Q00534 whole entry): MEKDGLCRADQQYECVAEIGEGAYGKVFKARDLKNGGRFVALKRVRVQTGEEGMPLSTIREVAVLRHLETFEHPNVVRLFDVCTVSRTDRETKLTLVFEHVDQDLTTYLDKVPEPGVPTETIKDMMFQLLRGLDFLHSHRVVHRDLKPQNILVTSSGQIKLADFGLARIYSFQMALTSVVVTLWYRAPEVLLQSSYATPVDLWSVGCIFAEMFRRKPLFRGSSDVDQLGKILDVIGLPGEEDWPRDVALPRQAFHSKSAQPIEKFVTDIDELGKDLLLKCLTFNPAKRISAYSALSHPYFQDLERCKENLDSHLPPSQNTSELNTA
UniProt Q00534, sequence (P30281 whole entry partner): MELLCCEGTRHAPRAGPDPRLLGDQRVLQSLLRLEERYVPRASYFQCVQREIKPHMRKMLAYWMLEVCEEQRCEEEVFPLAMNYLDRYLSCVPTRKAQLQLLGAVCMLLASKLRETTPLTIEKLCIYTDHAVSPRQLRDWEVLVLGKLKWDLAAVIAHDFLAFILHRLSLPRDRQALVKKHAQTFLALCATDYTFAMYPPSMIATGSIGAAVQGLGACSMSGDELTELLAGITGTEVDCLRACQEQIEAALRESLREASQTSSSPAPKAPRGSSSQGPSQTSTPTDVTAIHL
Turning to `CN(C)C(=O)c1cc2cnc(N[C@@H]3CCOC[C@H]3O)nc2n1-c1ccc2c(c1)C1(CCC2N(C)C)CC1` (stereo partly drawn) [Example 10, 7-(4′-(dimethylamino)-3′,4′-dihydro-2′H-spiro[cyclopropane-1,1′-naphthalen]-7′-yl)-2-(((3S,4R)-3-hydroxytetrahydro-2H-pyran-4-yl)amino)-N,N-dimethyl-7H-pyrrolo[2,3-d]pyrimidine-6-carboxamide], the IC50 was 0.584 µM.

In the case of `CN(C)Cc1ccc(-n2c(C(=O)N(C)C)cc3cnc(N[C@@H]4CCOC[C@H]4O)nc32)cc1Cl` [Example 6, 7-(3-chloro-4-((dimethylamino)methyl)phenyl)-2-(((3S,4R)-3-hydroxytetrahydro-2H-pyran-4-yl)amino)-N,N-dimethyl-7H-pyrrolo[2,3-d]pyrimidine-6-carboxamide], the IC50 amounted to 2.77 µM.

On to `CN(C)C(=O)c1cc2cnc(N[C@@H]3CCOC[C@H]3O)nc2n1-c1ccc2c(c1)C(F)(F)CCC2N(C)C` (stereo partly drawn) [Example 11, 7-(5-(dimethylamino)-8,8-difluoro-5,6,7,8-tetrahydronaphthalen-2-yl)-2-(((3S,4R)-3-hydroxytetrahydro-2H-pyran-4-yl)amino)-N,N-dimethyl-7H-pyrrolo[2,3-d]pyrimidine-6-carboxamide], for which the IC50 was 0.103 µM.

For `CC(=O)c1c(C)c2cnc(N[C@@H]3CCOC[C@H]3O)nc2n(C2CCCC2)c1=O` [Example 2 in WO2020212865, reference compound], the IC50 is 0.037 µM.

Consider `CN(C)C(=O)c1cc2cnc(N[C@@H]3CCOC[C@H]3O)nc2n1-c1ccc2c(c1)CCCC2N(C)C` (stereo partly drawn) [Example 9, 7-(5-(dimethylamino)-5,6,7,8-tetrahydronaphthalen-2-yl)-2-(((3S,4R)-3-hydroxytetrahydro-2H-pyran-4-yl)amino)-N,N-dimethyl-7H-pyrrolo[2,3-d]pyrimidine-6-carboxamide], for which the IC50 was found to be 0.779 µM.

On to `CN1CCc2cc(-n3c(C(=O)N(C)C)cc4cnc(N[C@@H]5CCOC[C@H]5O)nc43)ccc2C1` [Example 8, 2-(((3S,4R)-3-hydroxytetrahydro-2H-pyran-4-yl)amino)-N,N-dimethyl-7-(2-methyl-1,2,3,4-tetrahydroisoquinolin-6-yl)-7H-pyrrolo[2,3-d]pyrimidine-6-carboxamide], for which the IC50 is 6.76 µM.

For `CN(C)Cc1ccc(-n2c(C(=O)N(C)C)cc3cnc(N[C@@H]4CCOC[C@H]4O)nc32)cc1C1CC1` [Example 4, 7-(3-cyclopropyl-4-((dimethylamino)methyl)phenyl)-2-(((3S,4R)-3-hydroxytetrahydro-2H-pyran-4-yl)amino)-N,N-dimethyl-7H-pyrrolo[2,3-d]pyrimidine-6-carboxamide], the IC50 was 0.778 µM.

For the compound `Cc1ccc(-n2c(C(=O)N(C)C)cc3cnc(N[C@@H]4CCOC[C@H]4O)nc32)cc1` [Example 2, 2-(((3S,4R)-3-hydroxytetrahydro-2H-pyran-4-yl)amino)-N,N-dimethyl-7-(p-tolyl)-7H-pyrrolo[2,3-d]pyrimidine-6-carboxamide], the IC50 was 8.4 µM.

Regarding `CN(C)C(=O)c1cc2cnc(N[C@@H]3CCOC[C@H]3O)nc2n1C1CCCC1` [Example 1, 7-cyclopentyl-2-(((3S,4R)-3-hydroxytetrahydro-2H-pyran-4-yl)amino)-N,N-dimethyl-7H-pyrrolo[2,3-d]pyrimidine-6-carboxamide], the IC50 came out at 1.04 µM.

For `CN(C)Cc1ccc(-n2c(C(=O)N(C)C)cc3cnc(N[C@@H]4CCOC[C@H]4O)nc32)cc1C(F)(F)F` [Example 7, 7-(4-((dimethylamino)methyl)-3-(trifluoromethyl)phenyl)-2-(((3S,4R)-3-hydroxytetrahydro-2H-pyran-4-yl)amino)-N,N-dimethyl-7H-pyrrolo[2,3-d]pyrimidine-6-carboxamide], the IC50 was 0.71 µM.

On to `CC(C)n1c(C(C)(C)O)nc2c(F)cc(-c3nc(N[C@@H]4CCOC[C@H]4O)ncc3Cl)cc21` [Example A94 in WO2019207463, reference compound], for which the IC50 was determined as 0.12 µM.

Consider `CN(C)C(=O)c1cc2cnc(N[C@@H]3CCOC[C@H]3O)nc2n1-c1ccc2c(c1)CCC2N(C)C` (stereo partly drawn) [Example 12, 7-(1-(dimethylamino)-2,3-dihydro-1H-inden-5-yl)-2-(((3S,4R)-3-hydroxytetrahydro-2H-pyran-4-yl)amino)-N,N-dimethyl-7H-pyrrolo[2,3-d]pyrimidine-6-carboxamide], for which the IC50 was 3.47 µM.

On to `CN(C)Cc1ccc(-n2c(C(=O)N(C)C)cc3cnc(N[C@@H]4CCOC[C@H]4O)nc32)cc1F` [Example 5, 7-(4-((dimethylamino)methyl)-3-fluorophenyl)-2-(((3S,4R)-3-hydroxytetrahydro-2H-pyran-4-yl)amino)-N,N-dimethyl-7H-pyrrolo[2,3-d]pyrimidine-6-carboxamide], for which the IC50 was found to be 5.06 µM.

Regarding `CN(C)C(=O)c1cc2cnc(N[C@@H]3CCOC[C@H]3O)nc2n1-c1ccc2c(c1)C1(CC1)CC2N(C)C` (stereo partly drawn) [Example 13, 7-(3′-(dimethylamino)-2′,3′-dihydrospiro[cyclopropane-1,1′-inden]-6′-yl)-2-(((3S,4R)-3-hydroxytetrahydro-2H-pyran-4-yl)amino)-N,N-dimethyl-7H-pyrrolo[2,3-d]pyrimidine-6-carboxamide], the IC50 worked out at 2.68 µM.

For `CN(C)Cc1ccc(-n2c(C(=O)N(C)C)cc3cnc(N[C@@H]4CCOC[C@H]4O)nc32)cc1` [Example 3, 7-(4-((dimethylamino)methyl)phenyl)-2-(((3S,4R)-3-hydroxytetrahydro-2H-pyran-4-yl)amino)-N,N-dimethyl-7H-pyrrolo[2,3-d]pyrimidine-6-carboxamide], the IC50 was 3.54 µM.
